Measurements taken from the supplement of paper PMC8728848.
This is one part of the list.

Assays:
Assay in all cases: glycan array binding signal (z-score within array); higher = stronger binding
Details in all cases: glycan notation: IUPAC condensed, linker removed
Fuc(a1-2)Gal = molecular target: Fuc(a1-2)Gal
Summary of the method: (§1)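 The binding signal is a Z-score computed within each array. Data were drawn from 3228 arrays in the Consortium for Functional Glycomics database, restricted to those with a known protein sequence. Scores were averaged over arrays of the same protein sequence at different concentrations or buffers, and over linkers, and negative values can be taken as non-binding.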

Fuc(a1-2)Gal(b1-3)GalNAc = molecular target: Fuc(a1-2)Gal(b1-3)GalNAc
Summary of the method: as §1

[1] = molecular target: Fuc(a1-2)Gal(b1-3)GalNAc(a1-3)[Fuc(a1-2)]Gal(b1-4)Glc
Summary of the method: as §1

[2] = molecular target: Fuc(a1-2)Gal(b1-3)GalNAc(a1-3)[Fuc(a1-2)]Gal(b1-4)GlcNAc
Summary of the method: as §1

[3] = molecular target: Fuc(a1-2)Gal(b1-3)GalNAc(b1-3)Gal
Summary of the method: as §1

[4] = molecular target: Fuc(a1-2)Gal(b1-3)GalNAc(b1-3)Gal(a1-4)Gal(b1-4)Glc
Summary of the method: as §1

[5] = molecular target: Fuc(a1-2)Gal(b1-3)GalNAc(b1-4)[Neu5Ac(a2-3)]Gal(b1-4)Glc
Summary of the method: as §1

Fuc(a1-2)Gal(b1-3)GlcNAc = molecular target: Fuc(a1-2)Gal(b1-3)GlcNAc
Summary of the method: as §1

[6] = molecular target: Fuc(a1-2)Gal(b1-3)GlcNAc(b1-2)Man(a1-3)[Fuc(a1-2)Gal(b1-3)GlcNAc(b1-2)Man(a1-6)]Man(b1-4)GlcNAc(b1-4)GlcNAc
Summary of the method: as §1

[7] = molecular target: Fuc(a1-2)Gal(b1-3)GlcNAc(b1-2)Man(a1-3)[Fuc(a1-2)Gal(b1-3)GlcNAc(b1-2)Man(a1-6)]Man(b1-4)GlcNAc(b1-4)[Fuc(a1-6)]GlcNAc
Summary of the method: as §1

[8] = molecular target: Fuc(a1-2)Gal(b1-3)GlcNAc(b1-3)Gal(b1-4)Glc
Summary of the method: as §1

[9] = molecular target: Fuc(a1-2)Gal(b1-3)GlcNAc(b1-3)GalNAc
Summary of the method: as §1

[10] = molecular target: Fuc(a1-2)Gal(b1-3)GlcNAc(b1-3)[Fuc(a1-2)Gal(b1-3)GlcNAc(b1-6)]GalNAc
Summary of the method: as §1

[11] = molecular target: Fuc(a1-2)Gal(b1-3)GlcNAc(b1-3)[Gal(b1-4)GlcNAc(b1-6)]Gal(b1-4)Glc
Summary of the method: as §1

[12] = molecular target: Fuc(a1-2)Gal(b1-3)GlcNAc(b1-3)[Neu5Ac(a2-6)Gal(b1-4)GlcNAc(b1-6)]Gal(b1-4)Glc
Summary of the method: as §1

[13] = molecular target: Fuc(a1-2)Gal(b1-3)GlcNAc6S
Summary of the method: as §1

[14] = molecular target: Fuc(a1-2)Gal(b1-3)[Fuc(a1-4)]GlcNAc
Summary of the method: as §1

[15] = molecular target: Fuc(a1-2)Gal(b1-3)[Fuc(a1-4)]GlcNAc(b1-2)Man(a1-3)[Fuc(a1-2)Gal(b1-3)[Fuc(a1-4)]GlcNAc(b1-2)Man(a1-3)]Man(b1-4)GlcNAc(b1-4)GlcNAc
Summary of the method: as §1

[16] = molecular target: Fuc(a1-2)Gal(b1-3)[Fuc(a1-4)]GlcNAc(b1-2)Man(a1-3)[Fuc(a1-2)Gal(b1-3)[Fuc(a1-4)]GlcNAc(b1-2)Man(a1-6)]Man(b1-4)GlcNAc(b1-4)[Fuc(a1-6)]GlcNAc(b1-4)[Fuc(a1-6)]GlcNAc
Summary of the method: as §1

[17] = molecular target: Fuc(a1-2)Gal(b1-3)[Fuc(a1-4)]GlcNAc(b1-3)[Fuc(a1-3)[Gal(b1-4)]GlcNAc(b1-6)]Gal(b1-4)Glc
Summary of the method: as §1

[18] = molecular target: Fuc(a1-2)Gal(b1-3)[Fuc(a1-4)]GlcNAc(b1-3)[Gal(b1-4)GlcNAc(b1-6)]Gal(b1-4)Glc
Summary of the method: as §1

[19] = molecular target: Fuc(a1-2)Gal(b1-4)Fuc(a1-3)]GlcNAc(b1-2)Man(a1-3)[Fuc(a1-2)Gal(b1-4)[Fuc(a1-3)]GlcNAc(b1-2)Man(a1-6)]Man(b1-4)GlcNAc(b1-4)GlcNAc
Summary of the method: as §1

Fuc(a1-2)Gal(b1-4)Glc = molecular target: Fuc(a1-2)Gal(b1-4)Glc
Summary of the method: as §1

Fuc(a1-2)Gal(b1-4)Glc6S = molecular target: Fuc(a1-2)Gal(b1-4)Glc6S
Summary of the method: as §1

Fuc(a1-2)Gal(b1-4)GlcNAc = molecular target: Fuc(a1-2)Gal(b1-4)GlcNAc
Summary of the method: as §1

[20] = molecular target: Fuc(a1-2)Gal(b1-4)GlcNAc(b1-2)Man
Summary of the method: as §1

[21] = molecular target: Fuc(a1-2)Gal(b1-4)GlcNAc(b1-2)Man(a1-3)[Fuc(a1-2)Gal(b1-4)GlcNAc(b1-2)Man(a1-6)]Man(b1-4)GlcNAc(b1-4)GlcNAc
Summary of the method: as §1

[22] = molecular target: Fuc(a1-2)Gal(b1-4)GlcNAc(b1-2)Man(a1-3)[Fuc(a1-2)Gal(b1-4)GlcNAc(b1-2)Man(a1-6)]Man(b1-4)GlcNAc(b1-4)[Fuc(a1-6)]GlcNAc
Summary of the method: as §1

[23] = molecular target: Fuc(a1-2)Gal(b1-4)GlcNAc(b1-2)[Fuc(a1-2)Gal(b1-4)GlcNAc(b1-4)]Man(a1-3)[Fuc(a1-2)Gal(b1-4)GlcNAc(b1-2)Man(a1-6)]Man(b1-4)GlcNAc(b1-4)GlcNAc
Summary of the method: as §1

[24] = molecular target: Fuc(a1-2)Gal(b1-4)GlcNAc(b1-3)Gal(b1-4)GlcNAc
Summary of the method: as §1

[25] = molecular target: Fuc(a1-2)Gal(b1-4)GlcNAc(b1-3)Gal(b1-4)GlcNAc(b1-2)Man(a1-3)[Fuc(a1-2)Gal(b1-4)GlcNAc(b1-3)Gal(b1-4)GlcNAc(b1-2)Man(a1-6)]Man(b1-4)GlcNAc(b1-4)GlcNAc
Summary of the method: as §1

[26] = molecular target: Fuc(a1-2)Gal(b1-4)GlcNAc(b1-3)Gal(b1-4)GlcNAc(b1-3)Gal(b1-4)GlcNAc
Summary of the method: as §1

[27] = molecular target: Fuc(a1-2)Gal(b1-4)GlcNAc(b1-3)GalNAc
Summary of the method: as §1

[28] = molecular target: Fuc(a1-2)Gal(b1-4)GlcNAc(b1-3)[Fuc(a1-2)Gal(b1-4)GlcNAc(b1-6)]GalNAc
Summary of the method: as §1

[29] = molecular target: Fuc(a1-2)Gal(b1-4)GlcNAc(b1-3)[Fuc(a1-3)[Gal(b1-4)]GlcNAc(b1-6)]Gal(b1-4)Glc
Summary of the method: as §1

[30] = molecular target: Fuc(a1-2)Gal(b1-4)GlcNAc(b1-6)GalNAc
Summary of the method: as §1

[31] = molecular target: Fuc(a1-2)Gal(b1-4)GlcNAc6S
Summary of the method: as §1

B1: MAA (Maackia amurensis), P0DKL3 (protein)
chain: MATSNSKPTQVLLATFLTFFFLLLNNVNSSDELSFTINNFVPNEADLLFQGEASVSSTGVLQLTRVENGQPQKYSVGRALYAAPVRIWDNTTGSVASFSTSFTFVVKAPNPDITSDGLAFYLAPPDSQIPSGSVSKYLGLFNNSNSDSSNQIVAVELDTYFAHSYDPWDPNYRHIGIDVNGIESIKTVQWDWINGGVAFATITYLAPNKTLIASLVYPSNQTTFSVAASVDLKEILPEWVRVGFSAATGYPTEVETHDVLSWSFTSTLEANCDAATENNVHIARYTA
Fuc(a1-2)Gal
  glycan array binding signal (z-score): -0.205
Fuc(a1-2)Gal(b1-3)GalNAc
  glycan array binding signal (z-score): -0.239
[1]
  glycan array binding signal (z-score): -0.176
[2]
  glycan array binding signal (z-score): -0.183
[3]
  glycan array binding signal (z-score): -0.146
[4]
  glycan array binding signal (z-score): -0.21
[5]
  glycan array binding signal (z-score): -0.168
Fuc(a1-2)Gal(b1-3)GlcNAc
  glycan array binding signal (z-score): -0.214
[6]
  glycan array binding signal (z-score): 0.018
[7]
  glycan array binding signal (z-score): -0.187
[8]
  glycan array binding signal (z-score): -0.221
[9]
  glycan array binding signal (z-score): -0.248
[10]
  glycan array binding signal (z-score): -0.196
[11]
  glycan array binding signal (z-score): -0.262
[12]
  glycan array binding signal (z-score): -0.266
[13]
  glycan array binding signal (z-score): -0.301
[14]
  glycan array binding signal (z-score): -0.223
[15]
  glycan array binding signal (z-score): -0.158
[16]
  glycan array binding signal (z-score): -0.193
[17]
  glycan array binding signal (z-score): -0.239
[18]
  glycan array binding signal (z-score): -0.177
[19]
  glycan array binding signal (z-score): -0.025
Fuc(a1-2)Gal(b1-4)Glc
  glycan array binding signal (z-score): -0.163
Fuc(a1-2)Gal(b1-4)Glc6S
  glycan array binding signal (z-score): -0.105
Fuc(a1-2)Gal(b1-4)GlcNAc
  glycan array binding signal (z-score): -0.188
[20]
  glycan array binding signal (z-score): -0.305
[21]
  glycan array binding signal (z-score): -0.19
[22]
  glycan array binding signal (z-score): -0.291
[23]
  glycan array binding signal (z-score): -0.059
[24]
  glycan array binding signal (z-score): -0.236
[25]
  glycan array binding signal (z-score): -0.113
[26]
  glycan array binding signal (z-score): -0.196
[27]
  glycan array binding signal (z-score): -0.193
[28]
  glycan array binding signal (z-score): -0.264
[29]
  glycan array binding signal (z-score): -0.132
[30]
  glycan array binding signal (z-score): -0.214
[31]
  glycan array binding signal (z-score): -0.225
